Laboratory results taken from patent US20250018038A1 (UNIVERSITY OF CHICAGO, published 2025).
No constants are given. Whether binding was seen depends on the method and setting. Some entries that bind do so weakly or less than the wild type.

Chains of the proteins cited; added tags and fusions are not shown. Residues count along the entry.
UniProt O15392, residues 1-140: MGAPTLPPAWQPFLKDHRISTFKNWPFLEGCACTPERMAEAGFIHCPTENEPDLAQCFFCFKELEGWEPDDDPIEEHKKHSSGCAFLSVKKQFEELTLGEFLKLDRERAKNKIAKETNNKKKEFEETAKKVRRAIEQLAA

Legend:
[1] = target: Survivin (purified recombinant Survivin protein) (human) (UniProt O15392); test: single point protein ELISA: 50 nM Avi-tagged target on neutravidin plate, 200 nM Fab, protein L-HRP
Bor-C = target: T1, Bor-C (Biotinylated Avi tag, held on neutravidin; not in the letters); test: as above
T1 construct: also called Bor C: 207-280; Borealin C-terminal domain; not shown: Avi tag, and any purification tag or linker
T1 chain: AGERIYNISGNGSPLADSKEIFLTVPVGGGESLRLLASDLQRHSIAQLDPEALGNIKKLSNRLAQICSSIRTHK

Bor-N = target: T2, Bor-N (Biotinylated Avi tag, held on neutravidin; not in the letters); test: as above
T2 construct: also called Bor N: 20-88; Borealin N-terminal domain; not shown: Avi tag, and any purification tag or linker
T2 chain: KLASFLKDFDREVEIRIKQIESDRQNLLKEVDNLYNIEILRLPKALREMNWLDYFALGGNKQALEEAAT

[2] = substrate: T3, INC-N; test: as above
T3 sequence (chain, by the resolver, Biotinylated Avi tag, held on neutravidin; not in the letters): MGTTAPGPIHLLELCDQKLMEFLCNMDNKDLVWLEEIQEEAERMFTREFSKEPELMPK

[3] = target: Survivin (purified recombinant Survivin protein) (human) (UniProt O15392); test: western blot of recombinant Survivin probed with the Fab
[4] = target: Survivin (purified recombinant Survivin protein) (human) (UniProt O15392); test: western blot after SDS-PAGE, SUR-N-45 Fab as primary reagent, anti-human F(ab')2 IgG-HRP

Measured: binding

B1: SUR-FL-27 (Fab, V domains shown)
VH: EVQLVESGGGLVQPGGSLRLSCAASGFNVYSSYIHWVRQAPGKGLEWVASIYPSSGYTYYADSVKGRFTISADTSKNTAYLQMNSLRAEDTAVYYCARMSYYSWYYHSVYMYGLDYWGQGTLVTVSS
VL: DIQMTQSPSSLSASVGDRVTITCRASQSVSSAVAWYQQKPGKAPKLLIYSASSLYSGVPSRFSGSRSGTDFTLTISSLQPEDFATYYCQQASSDHSLITFGQGTKVEIKR
notes: also called SUR-FL-27 Fab
binds: [1] | Bor-C | Bor-N | [2]

B2: SUR-N-45 Fab (Fab, V domains shown)
VH: EVQLVESGGGLVQPGGSLRLSCAASGFNLSSSSIHWVRQAPGKGLEWVASISSYSGYTYYADSVKGRFTISADTSKNTAYLQMNSLRAEDTAVYYCARPHWNSSYFSGWAMDYWGQGTLVTVSS
VL: DIQMTQSPSSLSASVGDRVTITCRASQSVSSAVAWYQQKPGKAPKLLIYSASSLYSGVPSRFSGSRSGTDFTLTISSLQPEDFATYYCQQWSSKSPITFGQGTKVEIKR
binds: [1] | [3] | [4]
